From the supplement of paper PMC10126150
Sequences with one replicate were seen in a single cluster, so their values are uncertain.

Test system: ATP
Test: switch fluorescence ratio, 500 uM ATP over buffer (Cy3 cluster intensity, sum of 5 cycles each) (fold (ratio)); higher = stronger signal-on switching upon ATP binding; sequences stand for … in TCGTCGGCAGCGTCAGATGTGTATAAGAGACAGTTTTTTTTTTTTTTTTTTTTTTTTT…TC
Details: aptamer strand: ATP DNA aptamer (quencher-CACCTGGGGGAGTATTGCGGAGGAAGG + anchor), 100 nM annealed; ATP concentration: 500 uM; one replicate
How it was run: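 Values give the fluorescence ratio for each switch-domain sequence, averaged from per-cluster ratios of summed target-cycle to summed buffer-cycle Cy3 intensity. The Cy3-labelled switching-strand clusters sat on a modified Illumina MiSeq flow-cell, were annealed to 100 nM quencher-labelled ATP aptamer, and were imaged in selection buffer, then after 15 min with 500 uM ATP at 22 °C. Five cycles ran with NaOH stripping and re-annealing between them, and clusters outside 100-1000 RFU were excluded.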
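Note: ATP exposure 15 min at 22 °C before imaging.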

Sequence	switch fluorescence ratio
CAGACTCCCG	1.02
CAGACTCTTA	0.939
CAGACTGATT	1.07
CAGACTGTCG	1.01
CAGACTGTGG	0.99
CAGAGAATCG	0.996
CAGAGAGGGC	1.02
CAGAGATAGG	0.964
CAGAGGGATG	1.01
CAGAGGTTCG	1.01
CAGAGGTTTT	1.03
CAGAGTCAGT	0.963
CAGAGTGAGC	1.06
CAGAGTTGAG	0.957
CAGAGTTGCG	1
CAGATAGCCG	1.02
CAGATATGTT	0.949
CAGATCGAAA	1.06
CAGATCGTGT	1
CAGATGGCG	0.941
CAGATTGTTG	0.968
CAGCAACGAG	1.31

Sequence	switch fluorescence ratio
CAGCACTTGT	0.999
CAGCAGCAGG	1.65
CAGCAGGATA	1.01
CAGCATCGAT	1
CAGCCAACCG	1.05
CAGCCAGATA	0.96
CAGCCCGAGT	0.991
CAGCCCGGAG	1.14
CAGCCTGTGC	1.03
CAGCGCATTG	1.21
CAGCGCTGTG	0.999
CAGCGGGGTC	1.08
CAGCGGTTAG	0.943
CAGCGTCGCG	0.95
CAGCTAAACG	1.09
CAGCTAGTCG	1.01
CAGCTATAAC	2.68
CAGCTCAGGA	1.02
CAGCTCCGAG	1.11
CAGCTTCACA	1.04
CAGGAAAGGC	0.965
CAGGAAATGA	1.02

Sequence	switch fluorescence ratio
CAGGAACTGG	0.998
CAGGAATGTA	0.966
CAGGATAATC	1.34
CAGGATGTCA	1.03
CAGGCAAAGG	1.01
CAGGCACAG	1.01
CAGGCACCAC	1.04
CAGGCATCTA	1
CAGGCCCCGG	0.996
CAGGCGAAGT	0.957
CAGGCGCATT	1.81
CAGGCGTGCT	0.98
CAGGCGTTCA	1.01
CAGGCGTTCG	1.03
CAGGCTTAA	1.01
CAGGGAAAA	1.05
CAGGGAAGAA	0.976
CAGGGAAGCA	1.02
CAGGGCAACT	0.993
CAGGGCCAGG	1.19
CAGGGCTCAG	1
CAGGGGAATC	0.975

Sequence	switch fluorescence ratio
CAGGGTCAC	1.01
CAGGGTGCA	1.05
CAGGTACTGC	1.03
CAGGTAGCCA	0.974
CAGGTATAGT	1
CAGGTCCAGA	0.959
CAGGTCCGTT	0.963
CAGGTCGAGT	0.946
CAGGTGACTG	1.03
CAGGTGAGTA	1.19
CAGGTTACTC	1.07
CAGGTTATC	0.997
CAGGTTCAGA	1.03
CAGGTTTAC	1.01
CAGGTTTATC	0.95
CAGTAAATAG	3.32
CAGTAACCTA	1.04
CAGTAAGAGA	0.998
CAGTAATGGG	0.988
